# Laboratory results published in PubChem BioAssay AID651820 (National Center for Advancing Translational Sciences (NCATS), 2012).
# The campaign covered roughly 340,000 compounds. About 12,000 (3.5%) were called active. Inconclusive means that the source gave no clear call. Such entries were picked first, then a sample of the others. The call rests on the fitted dose curve; in most records, active means well fitted inhibition curve with a large enough effect; inconclusive means small, poorly fitted or top-dose-only effect, or another doubt; inactive means no such curve, though single readings can be large or run the other way. Potencies of inconclusive entries are left out as doubtful fits.
# Test: qHTS Assay for Inhibitors of Hepatitis C Virus (HCV)
# Details: Huh7.5.1 HCVcc-Cre (HCVcc is cell-culture hepatitis C virus) infection, luciferase reporter, 44 h; activity change, negative = inhibition: at 41.8 µM (top of the series) unless noted
# Summary of the method: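 Compounds are dispensed onto cells plated 4 h earlier at 1,000 per well, with HCVcc-Cre virus (about 0.5 moi) added next. Following 44 h of culture, luminescent signal is measured for 15 sec after 15 min with substrate at room temperature.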
# On the % scale 0 is the no-effect control and ±100 the full control effect; potency means the concentration at half of the fitted maximal effect; tags describe the fitted curve by direction and shape.
SMILES,Potency,"activity change, negative = inhibition"
O=C(c1ccc(CS(=O)Cc2ccc(Cl)cc2)o1)N1CCN(c2cccc(Cl)c2)CC1 (configuration not stated),"inconclusive [inhibitor, single point]",–
CN(Cc1ccccc1)C(=O)c1cccc(NC(=O)Cc2ccc([N+](=O)[O-])cc2)c1,"inconclusive [inhibitor, partial curve]",–
COCCn1c(=O)[nH]c2cc(C(=O)Nc3cc(OC)c(OC)c(OC)c3)ccc2c1=O,"inconclusive [inhibitor, full curve]",–
COC(=O)c1cnc(Nc2cc(C)ccc2OC)c2ccccc12,"inconclusive [inhibitor, single point]",–
O=C(CN1CCN(CC(=O)c2ccccc2)CC1)c1ccccc1,–,inactive: -5.58%
O=C(Nc1ccc2oc(-c3ccccc3F)nc2c1)c1ccccc1F,"inconclusive [inhibitor, partial curve]",–
Cc1c(C(=O)/C=C/N(C)C)nnn1-c1ccc(Cl)cc1Cl,–,inactive: -44.5%
Cn1c(=O)c2c(nc(CN3CCc4ccccc4C3)n2Cc2cccc(Cl)c2)n(C)c1=O,"inconclusive [inhibitor, full curve]",–
CCOC(=O)c1cc(-c2ccc(OC)cc2)n(CCC(=O)NCCN2CCC(C)CC2)c1C,"inconclusive [inhibitor, partial curve]",–
O=C(OCC(=O)N1CCN(c2ccccc2)CC1)c1ccc([N+](=O)[O-])s1,"inconclusive [inhibitor, partial curve]",–
COc1ccc(CCn2c(C)nc3c(c(=O)c4ccccc4n3C)c2=O)cc1,"inconclusive [inhibitor, single point]",–
O=C(Nc1ccc(S(=O)(=O)NC2=NCCCCC2)cc1)c1cccs1,"inconclusive [inhibitor, single point]",–
CCOc1cc(C(=O)Nc2cccnc2)cc(OCC)c1OCC,–,inactive: 1.42%
[O-]C(=C(C(=S)Nc1cccc2ccccc12)[n+]1ccccc1)c1ccc2c(c1)OCCO2,"inconclusive [inhibitor, single point]",–
COc1ccc2[nH]c3c(c2c1)CCN1C(=O)C(CC(=O)NC/C=C(\C)CCC=C(C)C)C[C@H](C(=O)N(C(C)C)C(C)C)[C@@]31C (some centres not stated),active: 6.31 µM,–
CCOC(=O)c1cc2n(c1N)-c1ccccc1C2=O,"inconclusive [inhibitor, single point]",–
CCNc1ccc(C(=O)OCC(=O)NC(=O)NCC(C)C)cc1[N+](=O)[O-],"inconclusive [inhibitor, partial curve, poor fit]",–
CCC(c1nnnn1CS(=O)(=O)c1ccc(C)cc1)N1CCN(c2nc3ccccc3s2)CC1 (configuration not stated),"inconclusive [inhibitor, single point]",–
Cc1ccc(-c2cc3c(nn2)-c2ccccc2C3=O)cc1,–,inactive: -2%
CCOc1ccc2nc(Cl)c(C3CC(c4ccco4)=NN3S(=O)(=O)c3ccccc3)cc2c1 (configuration not stated),"inconclusive [inhibitor, partial curve, poor fit]",–
Cc1ccc(CNC(=O)C(Cc2ccccc2)NS(=O)(=O)c2cccs2)cc1 (configuration not stated),"inconclusive [inhibitor, partial curve]",–
COc1cc(/C=c2\s/c(=C(/C#N)C(=O)N3CCCC3)n(-c3ccccc3)c2=O)ccc1O,"inconclusive [inhibitor, single point]",–
O=C(CSc1cc(Cl)ccc1Cl)Nc1ccc(N2CCOCC2)cc1,"inconclusive [inhibitor, partial curve, poor fit]",–
Cc1cc(N2CCN(C)CC2)ccc1NC(=O)c1ccc(-c2ccc(Cl)cc2)o1,active: 14.1 µM,–

SMILES,Potency,"activity change, negative = inhibition"
CC(C)(O)c1[nH]c2ccc(C(F)(F)F)cc2c1C(C)(C)O,–,inactive: 8.76%
CCc1nnc(NC(=O)CSc2nnc(-c3ccco3)n2C)s1,–,inactive: 11.5%
COc1ccc2ccccc2c1/C=N/NC(=S)NCCN1CCOCC1,"inconclusive [inhibitor, partial curve]",–
C/C(=N/O)c1c(O)c(C)c(-c2ccccc2)n(-c2ccccc2)c1=O,–,inactive: 28%
Fc1cccc(/C=N/Nc2ccc3ccccc3n2)c1,–,inactive: -12.4%
CC(=O)Nc1ccc(N=Nc2ccc(O)cc2)cc1,–,inactive: -18.2%
O=C(Nc1cccc(S(=O)(=O)NCc2ccco2)c1)c1cc(-c2ccc(F)cc2)nc2ccccc12,"inconclusive [inhibitor, single point]",–
CC(C)CC(OC(=O)c1ccco1)C(=O)NC1CCCC1 (configuration not stated),–,inactive: -16.8%
CCOC(=O)c1ccc(NCC(O)COc2ccccc2)cc1 (configuration not stated),"inconclusive [inhibitor, partial curve]",–
CC1CC(C)CN(CC(=O)Nc2ccc3c(c2)OCCO3)C1 (configuration not stated),–,inactive: 14.4%
CCOc1ccc(N(CC(=O)N2CCc3ccccc32)S(=O)(=O)c2c(C)noc2C)cc1,–,inactive: 6.88%
O=C(NC(=S)Nc1ccc(N2CCOCC2)cc1)c1ccco1,–,inactive: 18.1%
O=C(NNC(=O)c1ccc(-c2ccccc2)cc1)c1ccccc1,"inconclusive [inhibitor, single point]",–
CCN1CCN(C(c2ccc(F)cc2)c2nnnn2Cc2cccs2)CC1 (configuration not stated),–,inactive: -5.87%
COc1ccccc1N1CCN(C(c2cc3cc(C)ccc3[nH]c2=O)c2nnnn2C2CCCC2)CC1 (configuration not stated),inactive,–
O=C(Nc1ccc(Cc2ccncc2)cc1)C1CCC(N2C(=O)C3CC=CCC3C2=O)CC1 (configuration not stated),"inconclusive [inhibitor, single point]",–
O=C(CSc1nnc(-c2ccc(O)cc2)n1Cc1ccco1)c1ccccc1,–,inactive: -3.83%
O=C(CCl)N(c1ccc(Cl)cc1)c1c[nH]c2ccccc12,active: 2.51 µM,–
COc1ccccc1CCNC(=O)c1cccc(S(=O)(=O)N2CCc3ccccc3C2)c1,"inconclusive [inhibitor, full curve]",–
Cc1cc(C)nc(N(C#N)CCOc2ccc(Cl)cc2)n1,"inconclusive [inhibitor, single point]",–
CC(C)(C)SCCNC(=O)c1ccccc1,–,inactive: -4.29%
Cc1cccc(CN2CCC(CNC(=O)Cn3ncc4c([nH]c5ccccc54)c3=O)CC2)c1,–,inactive: 6.65%
CC1CC(C)CN(S(=O)(=O)c2ccc3oc(=O)ccc3c2)C1 (configuration not stated),–,inactive: -1.98%
CN(C)C(=O)CCc1ccc2c3c([nH]c2c1)[C@]1(CCC2CCCC2)[C@@H](C(=O)N2CCOCC2)C[C@H](CC(=O)NCc2cccc(C(F)(F)F)c2)C(=O)N1CC3,active: 25.1 µM,–

SMILES,Potency,"activity change, negative = inhibition"
COc1ccc(C2CC(=O)N3C(=C2C#N)SCC3(O)c2ccccc2)cc1 (configuration not stated),"inconclusive [inhibitor, single point]",–
COc1ccc(C(C(=O)NCc2ccc(F)cc2)N(C(=O)c2csnn2)C2CC2)cc1 (configuration not stated),–,inactive: 15.2%
O=[N+]([O-])c1ccc(S(=O)(=O)Nc2nc(-c3ccccc3)cs2)cc1,–,inactive: 12.8%
O=C(CSc1nc2ccccc2nc1N1CCOCC1)N1CCN(c2ccccc2)CC1,"inconclusive [inhibitor, single point]",–
C=CC[C@H](CC(=O)N(CCO)Cc1ccccc1)C(=O)N[C@H](COC(=O)[C@@H](CC=C)Cc1ccc(F)cc1)Cc1ccccc1,active: 10 µM,–
CCCCCCc1nc2ccccc2c(=O)n1N,–,inactive: 10.8%
Cc1nn(C)c(C)c1NS(=O)(=O)c1cccc(Br)c1,"inconclusive [inhibitor, single point]",–
Cc1ccsc1/C=C/C1=NCCCN1C,"inconclusive [inhibitor, single point]",–
COc1cccc(CC(CC(=O)O)C(=O)Nc2cc(C)ccc2C)c1 (configuration not stated),–,inactive: 11.7%
O=C(Nc1cccc(S(=O)(=O)N2CCCCC2)c1)C1CC1,–,inactive: 0.422%
O=C1N(c2ccccc2C(F)(F)F)O[C@]1(c1ccccc1)C1CCCCC1,–,inactive: -7.14%
CCOC(=O)N1CCN(C(=O)CSc2nnc(Cc3ccccc3)o2)CC1,"inconclusive [inhibitor, single point]",–
COc1cc2c(cc1OC)CN(Cc1cc(OC)c3c(c1)OCO3)CC2,–,inactive: 14.5%
O=C(NCC(=O)N1CCN(Cc2c(F)cccc2Cl)CC1)c1cccc(Cl)c1,"inconclusive [inhibitor, single point]",–
O=C(COC(=O)CCc1ccccc1)Nc1ccc(F)cc1Cl,–,inactive: 6.74%
Cn1c(SCC(=O)N2CCN(c3ccccc3)CC2)nnc1-c1cc2ccccc2o1,"inconclusive [inhibitor, single point]",–
CC(C)C(=O)NC(Nc1cccc2cccnc12)C(Cl)(Cl)Cl (configuration not stated),"inconclusive [inhibitor, full curve, poor fit]",–
CCC(C(=O)NC1CCCC1)N(C(=O)c1snc(C(N)=O)c1N)c1ccc2c(c1)OCCO2 (configuration not stated),"inconclusive [inhibitor, full curve, poor fit]",–
O=C(Nc1ccc(Oc2ccccc2)nc1)C1CCCCN1Cc1cccc(O)c1 (configuration not stated),"inconclusive [inhibitor, single point]",–
CCc1c(C(=O)Nc2ccc(OC)cc2)[nH]c(C)c1C(C)=O,"inconclusive [inhibitor, single point]",–
O=C(NN=C1CCCCCCCCCCC1)c1cccnc1,–,inactive: 12.8%
CCc1sc2nc(SCC(=O)Nc3cc(C)on3)n(-c3cccc(OC)c3)c(=O)c2c1C,"inconclusive [inhibitor, full curve]",–
Clc1ccc(CCNc2ncnc3c2nnn3Cc2ccccc2)cc1,–,inactive: 6.76%
Cn1nc(C(F)(F)F)c(-c2ccc(Br)cc2)c1NC(=O)c1ccco1,"inconclusive [inhibitor, single point]",–
